Assay results taken from patent US20200270321A1 (Hoffmann-La Roche, published 2020).

T1: human OX40 (CD134) on cells (human, UniProt P43489 29-277)
T1 construct: whole, on cells
T1 sequence (looked up): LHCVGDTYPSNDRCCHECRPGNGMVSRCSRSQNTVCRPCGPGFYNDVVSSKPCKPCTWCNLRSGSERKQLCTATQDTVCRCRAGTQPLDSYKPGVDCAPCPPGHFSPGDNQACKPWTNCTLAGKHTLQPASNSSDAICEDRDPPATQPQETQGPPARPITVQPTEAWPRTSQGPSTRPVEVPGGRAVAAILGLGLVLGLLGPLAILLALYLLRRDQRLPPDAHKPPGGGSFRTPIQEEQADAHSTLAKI

T2: monomeric human OX40 His molecule (human)
T2 construct: also called Hu OX40 avi His; huOX40 avi His
T2 chain: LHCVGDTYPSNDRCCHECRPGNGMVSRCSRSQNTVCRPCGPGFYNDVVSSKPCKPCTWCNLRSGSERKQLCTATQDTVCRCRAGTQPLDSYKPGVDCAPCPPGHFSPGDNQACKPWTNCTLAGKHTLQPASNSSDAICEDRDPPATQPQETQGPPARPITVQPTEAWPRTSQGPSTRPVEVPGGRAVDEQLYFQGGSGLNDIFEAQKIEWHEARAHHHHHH

B1: FAP(28H1)-targeted human OX40 ligand trimer-containing Fc (kih) fusion molecule (Compound S10) (Fc fusion)
chain: QVSHRYPRIQSIKVQFTEYKKEKGFILTSQKEDEIMKVQDNSVIINCDGFYLISLKGYFSQEVDISLHYQKDEEPLFQLKKVRSVNSLMVASLTYKDKVYLNVTTDNTSLDDFHVNGGELILIHQNPGEFCVLGGGGSGGGGSQVSHRYPRIQSIKVQFTEYKKEKGFILTSQKEDEIMKVQDNSVIINCDGFYLISLKGYFSQEVDISLHYQKDEEPLFQLKKVRSVNSLMVASLTYKDKVYLNVTTDNTSLDDFHVNGGELILIHQNPGEFCVLGGGGSGGGGSQVSHRYPRIQSIKVQFTEYKKEKGFILTSQKEDEIMKVQDNSVIINCDGFYLISLKGYFSQEVDISLHYQKDEEPLFQLKKVRSVNSLMVASLTYKDKVYLNVTTDNTSLDDFHVNGGELILIHQNPGEFCVLGSPGSSSSGS[left out - human IgG1 Fc with changes]
heavy: EVQLLESGGGLVQPGGSLRLSCAASGFTFSSHAMSWVRQAPGKGLEWVSAIWASGEQYYADSVKGRFTISRDNSKNTLYLQMNSLRAEDTAVYYCAKGWLGNFDYWGQGTLVTVSSASTKGPSVFPLAPSSKSTSGGTAALGCLVKDYFPEPVTVSWNSGALTSGVHTFPAVLQSSGLYSLSSVVTVPSSSLGTQTYICNVNHKPSNTKVDKKVEPKSCDKTHTCPPCPAPEAAGGPSVFLFPPKPKDTLMISRTPEVTCVVVDVSHEDPEVKFNWYVDGVEVHNAKTKPREEQYNSTYRVVSVLTVLHQDWLNGKEYKCKVSNKALGAPIEKTISKAKGQPREPQVCTLPPSRDELTKNQVSLSCAVKGFYPSDIAVEWESNGQPENNYKTTPPVLDSDGSFFLVSKLTVDKSRWQQGNVFSCSVMHEALHNHYTQKSLSLSPGK
light: EIVLTQSPGTLSLSPGERATLSCRASQSVSRSYLAWYQQKPGQAPRLLIIGASTRATGIPDRFSGSGSGTDFTLTISRLEPEDFAVYYCQQGQVIPPTFGQGTKVEIKRTVAAPSVFIFPPSDEQLKSGTASVVCLLNNFYPREAKVQWKVDNALQSGNSQESVTEQDSKDSTYSLSSTLTLSKADYEKHKVYACEVTHQGLSSPVTKSFNRGEC
notes: also called FAP single chain OX40L trimer; FAP single chain OX40 trimer
B2: DP47-containing single chain OX40 ligand trimer-containing Fc (kih) fusion molecule (Control 3) (Fc fusion)
chain: QVSHRYPRIQSIKVQFTEYKKEKGFILTSQKEDEIMKVQDNSVIINCDGFYLISLKGYFSQEVDISLHYQKDEEPLFQLKKVRSVNSLMVASLTYKDKVYLNVTTDNTSLDDFHVNGGELILIHQNPGEFCVLGGGGSGGGGSQVSHRYPRIQSIKVQFTEYKKEKGFILTSQKEDEIMKVQDNSVIINCDGFYLISLKGYFSQEVDISLHYQKDEEPLFQLKKVRSVNSLMVASLTYKDKVYLNVTTDNTSLDDFHVNGGELILIHQNPGEFCVLGGGGSGGGGSQVSHRYPRIQSIKVQFTEYKKEKGFILTSQKEDEIMKVQDNSVIINCDGFYLISLKGYFSQEVDISLHYQKDEEPLFQLKKVRSVNSLMVASLTYKDKVYLNVTTDNTSLDDFHVNGGELILIHQNPGEFCVLGSPGSSSSGS[left out - human IgG1 Fc with changes]
heavy: [left out - about 100 residues]GSGFDYWGQGTLVTVSSASTKGPSVFPLAPSSKSTSGGTAALGCLVKDYFPEPVTVSWNSGALTSGVHTFPAVLQSSGLYSLSSVVTVPSSSLGTQTYICNVNHKPSNTKVDKKVEPKSCDKTHTCPPCPAPEAAGGPSVFLFPPKPKDTLMISRTPEVTCVVVDVSHEDPEVKFNWYVDGVEVHNAKTKPREEQYNSTYRVVSVLTVLHQDWLNGKEYKCKVSNKALGAPIEKTISKAKGQPREPQVCTLPPSRDELTKNQVSLSCAVKGFYPSDIAVEWESNGQPENNYKTTPPVLDSDGSFFLVSKLTVDKSRWQQGNVFSCSVMHEALHNHYTQKSLSLSPGK
light: [left out - about 100 residues][left out - about 100 residues]
notes: Untargeted control; also called DP47 single chain OX40L trimer; DP47-containing single chain trimeric OX40L

Tests used:
[1] = biological target: T1, human OX40 (CD134) on cells; assay: flow cytometry on activated human PBMC, gate CD8+ T cells; FITC anti-human IgG Fc-gamma F(ab')2; MFI baseline corrected
[2] = biological target: T3, human fibroblast activation protein (huFAP) on cells (human, UniProt Q12884 1-760); assay: flow cytometry on WM266-4 cells; FITC anti-human IgG Fc-gamma F(ab')2; median fluorescence, baseline corrected
T3 construct: Transfected in NIH/3T3-huFAP clone 39; also called NIH/3T3-huFAP clone 39; WM266-4

[3] = biological target: T2, monomeric human OX40 His molecule; assay: SPR (Biacore T100, 25 C), fusion molecule captured by anti-human Fc, huOX40 avi His as analyte, 1:1 Langmuir fit
[4] = biological target: T1, human OX40 (CD134) on cells; assay: flow cytometry on activated human PBMC, gate CD4+ T cells; FITC anti-human IgG Fc-gamma F(ab')2; MFI baseline corrected

| Binder | binding result [1] | binding result [2] | Kd [3] [nM] | koff [3] [s⁻¹] | kon [3] [M⁻¹ s⁻¹] | EC50 (read off the curve) [4] [nM] |
| --- | --- | --- | --- | --- | --- | --- |
| B1 | binds | binds | 750 | 0.13 | 180000 | – |
| B2 | – | no binding (tested: 100 nM) | – | – | – | ~0.8 |
